The shares of active, inactive and inconclusive entries below differ from those in the screen. No potency is given beside an inconclusive call; the fits are too rough. The source made the active and inactive calls. The call rests on the fitted dose curve; in most records, active means well fitted inhibition curve with a large enough effect; inconclusive means small, poorly fitted or top-dose-only effect; inactive means no such curve, though single readings can be large or run the other way.
Molecular target: Muscarinic acetylcholine receptor M1 (Rattus norvegicus) (UniProt P08482)
Sequence of UniProt P08482 (P08482 whole entry, looked up): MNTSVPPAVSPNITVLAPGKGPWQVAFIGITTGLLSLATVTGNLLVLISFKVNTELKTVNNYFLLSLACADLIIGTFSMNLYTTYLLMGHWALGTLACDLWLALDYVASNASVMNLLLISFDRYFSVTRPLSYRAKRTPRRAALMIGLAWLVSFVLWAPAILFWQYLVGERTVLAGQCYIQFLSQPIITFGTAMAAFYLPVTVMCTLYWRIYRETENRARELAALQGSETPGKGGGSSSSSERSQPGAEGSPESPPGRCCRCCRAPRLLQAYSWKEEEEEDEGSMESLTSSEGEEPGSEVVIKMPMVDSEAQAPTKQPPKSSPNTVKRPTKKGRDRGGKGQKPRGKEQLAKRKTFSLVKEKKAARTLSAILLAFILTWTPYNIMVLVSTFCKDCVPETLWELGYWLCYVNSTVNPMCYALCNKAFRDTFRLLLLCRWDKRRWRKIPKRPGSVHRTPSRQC
Assay: qHTS Assay for Antagonists of Acetylcholine Muscarinic M1 Receptor: Kinetic Measurement of Intracellular Calcium Response (AID 943);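 on activity change, negative = inhibition: Fluo-4 calcium signal as peak divided by basal fluorescence over 4 min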
Conditions: M1-expressing cells, kinetic intracellular calcium fluorescence; series mostly up to 35.3 µM; activity change, negative = inhibition: at the top concentration
Summary of the method: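 Antagonism measured as reduction of carbachol-evoked (EC80, 100 nM final) calcium flux in rat M1-CHO cells after 10 min compound exposure. Fluo-4 signal read kinetically; ratio of maximal to basal fluorescence.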
Further: nearly all actives have a fitted effect of over 75% in size.
Potency means the concentration at half of the fitted maximal effect; tags describe the fitted curve by direction and shape.

SMILES	activity change, negative = inhibition	Potency
Nc1ccncc1	inactive: -21.8%	–
Clc1ccc(N2C[C@H]3CC[C@@H](C2)N3)nn1	–	inconclusive [inhibitor, partial curve, poor fit]
CCCN1CCC[C@@H]2Cc3[nH]ncc3C[C@H]21	–	inconclusive [inhibitor, partial curve, poor fit]
C[C@]12CCC(=O)C=C1CC[C@@H]1[C@@H]2CC[C@]2(C)C(=O)CC[C@@H]12	inactive: -57.2%	–
Cc1cccc(C)c1NC1=NCCCS1	–	inconclusive [inhibitor, partial curve, poor fit]
c1ccc2nc(N3CCNCC3)ccc2c1	–	inconclusive [inhibitor, partial curve, poor fit]
S=C(NC1CCCCC1)N1CCC(c2cnc[nH]2)CC1	–	inconclusive [inhibitor, partial curve, poor fit]
CN1[C@@H]2CC[C@H]1CC(OC(=O)c1cc(Cl)cc(Cl)c1)C2 (stereo not given in full)	–	active: 3.16 µM
O=C(CCCN1CCC2(CC1)C(=O)NCN2c1ccccc1)c1ccc(F)cc1	inactive: 13.3%	–
CC1=NN=C(c2ccc(N)cc2)c2cc3c(cc2C1)OCO3	–	inconclusive [inhibitor, full curve, poor fit]
CN(N=O)c1ccc(O)c(O)c1	–	inconclusive [inhibitor, full curve, poor fit]
CCCN1CCC[C@@H]2Cc3nc(N)ncc3C[C@H]21	–	inconclusive [inhibitor, partial curve, poor fit]
N[C@@H]1C[C@H]1c1ccccc1	–	inconclusive [inhibitor, partial curve, poor fit]
CC(C)NP(=O)(NC(C)C)OP(=O)(NC(C)C)NC(C)C	–	inconclusive [inhibitor, partial curve, poor fit]
CC(=O)[C@H]1CC[C@H]2[C@@H]3CC[C@H]4C[C@H](O)CC[C@]4(C)[C@H]3C(=O)C[C@]12C	–	inconclusive [inhibitor, partial curve, poor fit]

Molecular target: Muscarinic acetylcholine receptor M1 (Rattus norvegicus) (UniProt P08482)
Assay: qHTS Assay for Antagonists of Acetylcholine Muscarinic M1 Receptor: Measurement of IP-One Response (AID 944)
Conditions: CHO-M1 cells, IP-One HTRF, antagonist mode; series mostly up to 46.1 µM; activity change, negative = inhibition: at the top concentration

SMILES	activity change, negative = inhibition	Potency
Nc1ccncc1	inactive: -16.5%	–
Clc1ccc(N2C[C@H]3CC[C@@H](C2)N3)nn1	–	inconclusive [inhibitor, partial curve, poor fit]
Cc1cccc(C)c1NC1=NCCCS1	–	inconclusive [inhibitor, partial curve, poor fit]
c1ccc2nc(N3CCNCC3)ccc2c1	–	inconclusive [inhibitor, full curve, poor fit]
S=C(NC1CCCCC1)N1CCC(c2cnc[nH]2)CC1	–	inconclusive [inhibitor, partial curve, poor fit]
CN1[C@@H]2CC[C@H]1CC(OC(=O)c1cc(Cl)cc(Cl)c1)C2 (stereo not given in full)	–	active: 3.98 µM
O=C(CCCN1CCC2(CC1)C(=O)NCN2c1ccccc1)c1ccc(F)cc1	–	inconclusive [inhibitor, partial curve, poor fit]
CC1=NN=C(c2ccc(N)cc2)c2cc3c(cc2C1)OCO3	inactive: -28.7%	–
CN1C[C@H](CNC(=O)OCc2ccccc2)C[C@@H]2c3cccc4c3c(cn4C)C[C@H]21	–	active: 15.8 µM
CC(=O)[C@H]1CC[C@H]2[C@@H]3CC[C@H]4C[C@H](O)CC[C@]4(C)[C@H]3C(=O)C[C@]12C	–	inconclusive [inhibitor, partial curve, poor fit]

Source: PubChem BioAssay (NCATS)
